What was measured:
[1] = tested on: human gastric cancer NCI-N87 xenograft; assay: Human gastric cancer NCI-N87 xenograft model (Study M109-010-2018); type: in vivo, mouse; settings: 10 mg/kg
[2] = Pharmacokinetics (total antibody and intact ADC, Gyros) in NCI-N87 tumor-bearing mice, dose titration (Example 5); type: in vivo, mouse; settings: 5 mg/kg to 25 mg/kg
Experimental: (§1) PK analysis was performed using both an intact ADC assay and a total antibody assay. Total antibody refers to the sum total of all species, including conjugated and unconjugated species (i.e., DAR0+DAR1+DAR2+ . . . +DARn), whereas intact ADC refers to all conjugated species (i.e., DAR1+DAR2+ . . . +DARn). Total antibody assay used biotinylated mesothelin for capture. Intact ADC assay used biotinylated anti-eribulin 5E4 Fab fragment for capture and AlexaFluor647-labelled anti-human Fc for detection. Sample analysis was performed on a Gyros analyzer. Data analysis was performed in WatsonLIMS 7.4.1 and plotted in Microsoft Excel.

[3] = tested on: human ovarian cancer OVCAR-3-A1-T1 xenograft; assay: Human ovarian cancer OVCAR-3-A1-T1 xenograft model; type: in vivo, mouse; settings: 5 mg/kg
Experimental: Animals: Female NOD.CB17-SCID mice (Jackson Laboratory).
100 μL/mouse of the mixture was injected subcutaneously. […] 3 times weekly, beginning on day 3 post-implantation.

human NSCLC PDX LC-F-25 = assay: Human NSCLC PDX model LC-F-25; type: in vivo, mouse
Experimental: Statistical analysis: Statistical analysis was performed for each measurement by a Mann-Whitney non-parametric comparison test. Each treated group was compared with the control group.

[4] = Pharmacokinetics (total antibody and intact ADC, Gyros) in NCI-N87 tumor-bearing mice (Example 9); type: in vivo, mouse; settings: single dose 10 mg/kg
Experimental: as §1, with “capture and AlexaFluor647-labelled anti-human Fc for detection.” for “capture.”, “5E4” for “5E4 Fab fragment”, “Excel. Eribulin was quantitated using LC-MS from plasma, tumor, and bone marrow samples. 9.1.3 LC-MS” for “Excel.”

[5] = Eribulin quantitation by LC-MS in plasma, tumor, and bone marrow (Example 9); type: in vivo, mouse; settings: NCI-N87-tumor-bearing mice, single dose 10 mg/kg
Experimental: as §1, with “capture and AlexaFluor647-labelled anti-human Fc for detection.” for “capture.”, “5E4” for “5E4 Fab fragment”, “Excel. Eribulin was quantitated using LC-MS from plasma, tumor, and bone marrow samples. 9.1.3 LC-MS” for “Excel.”

[6] = DAR-sensitive stability assay in human plasma (Gyrolab); type: in vitro ADME; settings: 0.1 mg/mL, 37° C., up to 240 hours
Source text: (§2) All samples were thawed to ambient temperature and diluted 1:100 for testing. A DAR-sensitive stability assay was developed as stepwise sandwich format on Gyrolab. Assay used biotinylated mesothelin for capture after blocking and sample binding, and Alexa Fluor 647 anti-eribulin 5E4 Fab or Alexa Fluor 647 anti-DM4 (Levena Biopharma) for detection.

[7] = DAR-sensitive stability assay in mouse plasma (Gyrolab); type: in vitro ADME; settings: 0.1 mg/mL, 37° C., up to 240 hours
Source text: as §2

[8] = tested on: human mesothelioma PDX Meso7212; assay: Human mesothelioma PDX model Meso7212 (Example 17); type: in vivo, mouse; settings: 10 mg/kg single dose i.v.
Experimental: Xenotransplantation: On day 0. Meso 7212 tumors were removed from the five donor mice under sterile conditions.
Experimental procedure: After the xenotransplantation, the engraftment and the propagation of the tumor in the mice were controlled at least twice weekly by palpation. When the tumor was palpable, the measurements of tumor diameters were performed with a digital caliper (Mitutoyo).
From the first treatment day onwards, tumor volumes and body weights were recorded twice weekly. The animal welfare was controlled twice daily.
Treatment: All agents were administered intravenously as a single dose on the day of randomization. Animals in the control group were treated with DPBS in the same manner.

[9] = tested on: human gastric cancer NCI-N87 xenograft; settings: dose ranges from 5 mg/kg to 25 mg/kg
[10] = tested on: human mesothelioma PDX Meso7212; assay: Human mesothelioma PDX model Meso7212 (Example 3); settings: Meso7212 (MV16071); single administration of 10 mg/kg

B1: MORAb-109 (DAR2) (conjugate)
heavy: QVQLVESGGGVVQPGRSLRLSCAASGIDLSSYAMSWVRQAPGKGLEWIGVIDISGNRFYADWVKGRFTISRDNSKNTLYLQMSSLRAEDTAVYYCARVDSRAWGPFNLWGQGTLVTVSS[skipping human IgG1 constant region]
light: DYQMTQSPSSLSASVGDRVTITCQASQSIFSYLAWYQQKPGKAPKLLIYDASDLASGVPSRFSGSGSGTDFTLTISSLQCEDAATYYCQQGYTRSDVDNAFGGGTKVEIKRTVAAPSVFIFPPSDEQLKSGTASVVCLLNNFYPREAKVQWKVDNALQSGNSQESVTEQDSKDSTYSLSSTLTLSKADYEKHKVYACEVTHQGLSSPVTKSFNRGEC
modifications: non-natural residues
[1]; FIG. 13A
  anti-tumor response: durable and similar anti-tumor responses
[1]; FIG. 13B
  body weight change: little to no weight loss
[2]
  exposure of ADC (AUC): dose-dependent increases in AUC
[3]
  anti-tumor effect: tumor growth delay
Human NSCLC PDX LC-F-25; 10 mg/kg single dose i.v.
  anti-tumor effect: tumor growth delay
Human NSCLC PDX LC-F-25; single dose of 10 mg/kg, intravenous
  tolerability / bodyweight: well tolerated without bodyweight loss
[4]
  AUC0-inf, ADC: 14.2 mg·h/mL
  AUC0-inf, Total Ab: 20.9 mg·h/mL
  CLtot, ADC: 0.71 mL/h/kg
  Cmax, Total Ab: 137 µg/mL
  T1/2, ADC: 134 h
  T1/2, Total Ab: 191 h
  Tmax, Total Ab: 10.2 min
  Vdss, ADC: 121 mL/kg
[5]; eribulin in bone marrow
  AUC0-inf, Bone marrow ERI: 9.9 µg·h/mL
  T1/2, Bone marrow ERI: 151 h
  Tmax, Bone marrow ERI: 1 h
[5]; eribulin in plasma
  AUC0-inf, Plasma ERI: 44.0 ng·h/mL
  Cmax, Plasma ERI: 0.65 ng/mL
  T1/2, Plasma ERI: 59 h
  Tmax, Plasma ERI: 10.2 min
[5]; eribulin in tumor
  AUC0-inf, Tumor ERI: 17.8 µg·h/mL
  Cmax, Tumor ERI: 64 ng/g
  T1/2, Tumor ERI: 162 h
  Tmax, Tumor ERI: 24 h
[6]
  stability in human plasma: more stable than BAY 94-9343
[7]
  stability in mouse plasma: more stable than BAY 94-9343
[8]
  anti-tumor effect: tumor regression
[9]
  efficacy (dose-response): Dose-dependent efficacy
[10]
  anti-tumor response: durable and comparable anti-tumor responses

Source: patent publication US12564641B2 (EISAI R&D MANAGEMENT CO., LTD., priority 2019, dated 2026)
